Measurements published in a collection of fitness landscapes (doi:10.1016/j.celrep.2020.107928).
In all, about 81,000 sequences were measured (“one-hybrid fitness for binding NBS DNA”: median about -0.1, highest 2% from about 0.36 on). The list shows a part of the results.

B1: Caulobacter ParB omega fusion; a variant is named by its letters at X, in order, B8GW30 (parent)
chain: MESVVVGEPGMSEGRRGLGRGLSALLGEVDAAPAQAPGEQLGGSREAPIEILQRNPDQPRRTFREEDLEDLSNSIREKGVLQPILVRPSPDTAGEYQIVAGERAWRAAQRAGLKTVPIMVRELDDLAVLEIGIIENVQRADLNVLEEALSYKVLMEKFERTQENIAQTIGKSXSHVANXMRLLXLPDEVQSYLVSGELTAXHARAIAAAADPVALAKQIIEGGLSVRETEALARKAPNLSAGKSKGGRPPRVKDTDTQALESDLSSVLGLDVSIDHRGSTGTLTITYATLEQLDDLCNRLTRGI

Variants of: B1
Assay: one-hybrid fitness for binding NBS DNA (the Noc-binding site; scaled: cognate 1, non-cognate 0); higher = stronger binding
Conditions: with NBS DNA site
In short: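 Selection: bacterial one-hybrid in E. coli USO, HIS3 reporter with the site 19 bp from the promoter, 48 hours at 37°C on M9-minus-histidine plus 0.1 mM IPTG and 5 mM 3-AT. Libraries were Caulobacter ParB with four randomised specificity codons, sequenced on Illumina before and after selection. Fitness is the rescaled log change in variant-to-wild-type read ratio, anchored to the cognate and non-cognate sites.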

Variant | one-hybrid fitness for binding NBS DNA
DVTL | ≤ 0.2
QSHW | ≤ 0.2
GSQW | ≤ 0.2
QSLK | ≤ 0.2
RNSM | ≤ 0.2
VAPL | ≤ 0.2
GHAT | ≤ 0.2
ALSW | ≤ 0.2
NASM | ≤ 0.2
KWWS | ≤ 0.2
MYRS | ≤ 0.2
CTDN | ≤ 0.2
HRSR | ≤ 0.2
CEVS | ≤ 0.2
AWTN | ≤ 0.2
GRNK | ≤ 0.2
MCAC | ≤ 0.2
AGEV | ≤ 0.2
SIAF | ≤ 0.2
EVQT | ≤ 0.2
TKVC | ≤ 0.2
PPDE | ≤ 0.2
ATIC | ≤ 0.2
ITPY | ≤ 0.2
VASL | ≤ 0.2

Variant | one-hybrid fitness for binding NBS DNA
ARNW | ≤ 0.2
KDFR | ≤ 0.2
LGID | ≤ 0.2
RSGG | ≤ 0.2
MVTG | ≤ 0.2
ITQC | ≤ 0.2
SLWF | ≤ 0.2
SNAS | ≤ 0.2
NCLE | ≤ 0.2
DESK | ≤ 0.2
SAPF | ≤ 0.2
QKIH | ≤ 0.2
IMDT | ≤ 0.2
DMFC | ≤ 0.2
DSHN | ≤ 0.2
CRHY | ≤ 0.2
ANTP | ≤ 0.2
FHFR | ≤ 0.2
KTQD | ≤ 0.2
HDPS | ≤ 0.2
QHTN | ≤ 0.2
AWRY | ≤ 0.2
RWNG | ≤ 0.2
HRQV | ≤ 0.2
GVDL | ≤ 0.2

Variant | one-hybrid fitness for binding NBS DNA
GCAP | ≤ 0.2
KIYR | ≤ 0.2
TVMS | ≤ 0.2
SGET | ≤ 0.2
YTKG | ≤ 0.2
QTCV | ≤ 0.2
MPMT | ≤ 0.2
GWPD | ≤ 0.2
YWTR | ≤ 0.2
ENLH | ≤ 0.2
FMTE | ≤ 0.2
IRDC | ≤ 0.2
VRIA | ≤ 0.2
LCLK | ≤ 0.2
GTTM | ≤ 0.2
KGCR | ≤ 0.2
WRPC | ≤ 0.2
RTGE | ≤ 0.2
RVTY | ≤ 0.2
THVK | ≤ 0.2
DCSR | ≤ 0.2
LTLP | ≤ 0.2
WRVR | ≤ 0.2
WRNI | ≤ 0.2
VSAH | ≤ 0.2

Variant | one-hybrid fitness for binding NBS DNA
WIPP | ≤ 0.2
TYMW | ≤ 0.2
RKLM | ≤ 0.2
WRDV | ≤ 0.2
SGVK | ≤ 0.2
VAEC | ≤ 0.2
MSPA | ≤ 0.2
IMLR | ≤ 0.2
NYPW | ≤ 0.2
PELL | ≤ 0.2
NPYC | ≤ 0.2
RSIR | 0.207
YTVT | ≤ 0.2
RLSH | ≤ 0.2
RDGT | ≤ 0.2
QYAS | 0.327
QRRD | 0.356
AHVF | ≤ 0.2
MRRA | ≤ 0.2
TGPW | ≤ 0.2
LTRA | ≤ 0.2
FLEG | ≤ 0.2
PKHG | ≤ 0.2
IALM | ≤ 0.2
TRAT | 0.315

Variant | one-hybrid fitness for binding NBS DNA
VYYT | ≤ 0.2
WPAS | ≤ 0.2
HWAC | ≤ 0.2
ALQT | ≤ 0.2
YALS | ≤ 0.2
HYQT | ≤ 0.2
LGHF | ≤ 0.2
TGNC | ≤ 0.2
YPQC | ≤ 0.2
SQGR | ≤ 0.2
DLQT | ≤ 0.2
DHAL | ≤ 0.2
ELWS | ≤ 0.2
MVEM | ≤ 0.2
SQII | ≤ 0.2
VYQT | ≤ 0.2
MTVQ | ≤ 0.2
AMVG | ≤ 0.2
RQLE | ≤ 0.2
SKTS | ≤ 0.2
HPPS | ≤ 0.2
HEPC | ≤ 0.2
MAKP | ≤ 0.2
VPQG | ≤ 0.2
SLLL | ≤ 0.2

Variant | one-hybrid fitness for binding NBS DNA
QLQG | ≤ 0.2
HHKS | ≤ 0.2
TRVP | ≤ 0.2
LWQC | ≤ 0.2
IFLG | ≤ 0.2
LWLC | ≤ 0.2
RGVF | ≤ 0.2
FGDF | ≤ 0.2
MRHS | ≤ 0.2
YRAS | ≤ 0.2
NRRC | ≤ 0.2
HMFR | ≤ 0.2
PFPP | ≤ 0.2
INQG | ≤ 0.2
NHEV | ≤ 0.2
TEGL | ≤ 0.2
IKTI | ≤ 0.2
STCS | ≤ 0.2
TGGS | ≤ 0.2
KIVR | ≤ 0.2
DHFR | ≤ 0.2
SWTA | ≤ 0.2
DIKS | ≤ 0.2
CCNA | ≤ 0.2
STAP | ≤ 0.2

Variant | one-hybrid fitness for binding NBS DNA
EYPC | ≤ 0.2
TYPP | ≤ 0.2
IIAG | ≤ 0.2
TIMS | ≤ 0.2
ADCQ | ≤ 0.2
RSRV | ≤ 0.2
QCIY | ≤ 0.2
GSKI | ≤ 0.2
HMHD | ≤ 0.2
HIID | ≤ 0.2
EGGI | ≤ 0.2
CFMK | ≤ 0.2
GNKA | ≤ 0.2
MSFT | ≤ 0.2
VKCI | ≤ 0.2
WANS | ≤ 0.2
HFEE | ≤ 0.2
QTVF | ≤ 0.2
SRLT | ≤ 0.2
KLLV | ≤ 0.2
QLHG | ≤ 0.2
PQHY | ≤ 0.2
AKPI | ≤ 0.2
PLRV | ≤ 0.2
DGKR | ≤ 0.2

Variant | one-hybrid fitness for binding NBS DNA
NFQE | ≤ 0.2
YLQP | ≤ 0.2
RWVR | 0.259
RARG | ≤ 0.2
DTHI | ≤ 0.2
WRDY | ≤ 0.2
RKSF | ≤ 0.2
TLIS | ≤ 0.2
RMIQ | ≤ 0.2
RFNR | 0.325
RTVA | ≤ 0.2
PHHV | ≤ 0.2
PEPI | ≤ 0.2
GRMW | ≤ 0.2
QSEH | ≤ 0.2
FKAG | ≤ 0.2
DKVR | ≤ 0.2
APGC | ≤ 0.2
EFLK | ≤ 0.2
SCPD | ≤ 0.2
